Consider 109 sequences from publication PMC10668032.

Some of the results follow. At the low end of the ranking the order means little.

This assay deals with SIX1 homeodomain (reference allele) (UniProt Q15475). As to the kind of experiment: universal protein binding microarray. The following applies: Universal all-10-mer PBM (8x60K, AMADID 030236), 300 nM GST-tagged protein, Alexa Fluor 488 anti-GST; buffer, salt, pH and temperature not stated; high values mean tight binding; most listed sequences are background and not binding sites; double strand, one strand shown.
Turning to AGACCGCA, the binding signal was -0.159 E-score. GTGTAGGA: the binding signal was determined as 0.129 E-score. For CCAGTACG, the binding signal was -0.0984 E-score.

On to GTCAGAAC, for which the binding signal is -0.243 E-score.

Regarding GACATCCC, the binding signal was -0.0914 E-score. With AGCGTTGA the figure was -0.133 E-score; with AGGTCAAC, -0.18 E-score; with CGAACCTC, 0.012 E-score. For the sequence CGTCAGAG, the binding signal was -0.0786 E-score. As to CATCCAGA, the binding signal was determined as 0.13 E-score. With GAATGTTA the figure was -0.18 E-score. For the sequence GTACGTTA, the binding signal was -0.203 E-score.

With ACGTAGAT, the binding signal was 0.047 E-score. The value for AAGTGCAA was -0.324 E-score; that for CATATACC was 0.282 E-score. For the sequence AAACTTGT, the binding signal is -0.294 E-score. The value for ATGAGTTA was -0.151 E-score; that for GCGTCTAA was -0.0322 E-score; that for ATGTTAAC was -0.092 E-score.

As for CGCAGATC, the binding signal was 0.214 E-score. Turning to CTACGGAG, the binding signal is -0.133 E-score. In the case of ATTCACCA, the binding signal was -0.148 E-score. Regarding AGCGGCAG, the binding signal was -0.173 E-score. The value for ATAGACCG was 0.000455 E-score. The value for GATCGTAA was 0.216 E-score; that for ATGGAAGG was -0.28 E-score. On to ATGACTTA, for which the binding signal is -0.166 E-score.

With ATTCTACA, the binding signal was -0.0181 E-score. For the sequence AGCAGGCT, the binding signal turned out to be 0.0674 E-score. Regarding TGAACGAA, the binding signal was -0.271 E-score.

With AAGACGCT, the binding signal is -0.216 E-score. Consider CTGTCGTA, for which the binding signal was -0.123 E-score.

In the case of ACCCCATC, the binding signal was 0.12 E-score.

Consider ACCTCCAA, for which the binding signal is -0.0084 E-score. The value for GCGGAGCC was -0.198 E-score; that for AGGCCATA was 0.0051 E-score. With CACTAAGA the figure was -0.00227 E-score; with CACCGGAA, 0.143 E-score. The value for ATAGGTTC was 0.167 E-score; that for AAAGATCG was 0.0621 E-score.

For the sequence ATACAATA, the binding signal is 0.356 E-score. As for GAGGTAGA, the binding signal was 0.0912 E-score.

As to GACACGCC, the binding signal is 0.0739 E-score. Turning to GTAAAGGA, the binding signal is -0.178 E-score.

For ATAAGAAG, the binding signal turned out to be 0.0394 E-score. Turning to GCGATCGA, the binding signal turned out to be 0.199 E-score. With CACGGTAC the figure was -0.108 E-score. Take CACTGTGA: the binding signal turned out to be 0.131 E-score. Turning to AGCTTAAG, the binding signal was -0.0998 E-score.

Regarding AGGCCTAG, the binding signal is -0.0825 E-score. Turning to ATCCCGAG, the binding signal stood at 0.257 E-score.

In the case of ATACCACG, the binding signal came to 0.291 E-score. Regarding CCGTGGTC, the binding signal was -0.0708 E-score. The value for AAGTAGTG was 0.116 E-score; that for ACGGGAGC was -0.0868 E-score. ATGTTCGA: the binding signal was -0.0952 E-score. With ACCAAAAG the figure was -0.0789 E-score. With ACATGTCG the figure was -0.18 E-score; with AATCCAGT, -0.0621 E-score; with ACACTTTC, 0.0154 E-score.

Consider AAAAAGCG, for which the binding signal was -0.164 E-score. As to GGGAGCCC, the binding signal was -0.253 E-score. In the case of AAGTGGCA, the binding signal is -0.199 E-score.

Take GGGGCTAA: the binding signal is -0.0849 E-score. With ACAAATAT, the binding signal is -0.0523 E-score.

AGCATTCG: the binding signal is -0.16 E-score. For ATCTCTAC, the binding signal is 0.107 E-score. For CTGGTCTC, the binding signal is -0.0355 E-score. As to ACATACAT, the binding signal worked out at 0.0714 E-score.

CCGTAAAG: the binding signal was -0.0171 E-score. As for ACATCATA, the binding signal was 0.0305 E-score. For TCATCTAA, the binding signal was found to be 0.11 E-score.

AATGTTTG: the binding signal was -0.186 E-score. As for GCCGTGCC, the binding signal is -0.0942 E-score. As to CATGCACA, the binding signal is -0.0972 E-score. For the sequence CACGAATA, the binding signal is -0.0176 E-score. TCACGCGA: the binding signal amounted to 0.102 E-score. The value for ATCAGGCC was 0.114 E-score. In the case of GACTGACC, the binding signal was -0.208 E-score. For AAGCGTCT, the binding signal was found to be 0.0223 E-score. Consider AGCTATCA, for which the binding signal worked out at 0.313 E-score. Turning to CTAGAGTA, the binding signal is 0.0823 E-score.

Consider CGCCTCTC, for which the binding signal is 0.00732 E-score.

Consider AACGTGCA, for which the binding signal was -0.181 E-score. The value for CGCGAATA was 0.052 E-score.

Turning to ACAATAGA, the binding signal was -0.0929 E-score.

Consider ATGCGGTA, for which the binding signal came out at 0.265 E-score. AGAACCAA: the binding signal is -0.163 E-score. In the case of CGGTAGAA, the binding signal was -0.191 E-score. Take ACGTGATG: the binding signal was -0.0265 E-score. As for ACGCTCGC, the binding signal was -0.346 E-score. Regarding CGTTACTC, the binding signal is -0.189 E-score. For AGCGTCCG, the binding signal is -0.217 E-score. The value for CCGGCGTA was 0.0553 E-score. For CAAGTGTG, the binding signal is -0.138 E-score. The value for ACAGTTAT was -0.023 E-score; that for GTGGTACA was -0.0736 E-score; that for GTCTGACA was -0.13 E-score. Turning to CTTTACGA, the binding signal was -0.154 E-score. With AAAAGCCA the figure was -0.158 E-score; with GAGCTCCA, -0.0935 E-score.

For the sequence CAGGTACC, the binding signal was -0.198 E-score. With AACATGTT, the binding signal is -0.188 E-score.

As to CAGTGGAG, the binding signal was 0.0211 E-score. For the sequence CCCTTTAA, the binding signal is -0.0161 E-score.

As for GCACACGA, the binding signal was 0.0598 E-score. Consider CCAGACAC, for which the binding signal was found to be 0.128 E-score. The value for CCCCTCAA was -0.00329 E-score; that for GAAGTACC was -0.103 E-score.
